Measurements: the RNAGym collection of RNA variant scans (doi:10.1101/gad.245936.114)
Variants at the floor of the assay are shown more often than the library holds them.

B1: tRNA (parent)
chain: CUCUCGGUAGCCAAGUUGGUUUAAGGCGCAAGACUUUAAUUUAUCACUACGAAAUCUUGAGAUCGGGCGUUCGACUCGCCCCCGGGAGAUUUUUUCCUCGAGCAA

Variants of: B1
Test: nonsense suppression (GFP-seq) (ratio to wild type); higher = more function; SUP4oc tRNA, yeast GFP reporter sort-seq
In short: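 Each variant's nonsense suppression (GFPSEQ) is a cell-share-weighted bin median GFP/RFP relative to the unmutated parent tRNA. Yeast with genome-integrated tRNA variants from a ~3% random-mutation library, a galactose-driven GFP ochre reporter and RFP were grown in raffinose/galactose medium with 80 mg/L adenine, then sorted into GFP/RFP bins for Illumina sequencing. Variants needed ≥100 reads and ≥30 cells.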

Variant	nonsense suppression
CUCUCGGUAGCCAAGUUGGUUUAAGGCGCAAGACUUUAAUUUAUCACUACGAAAUCUUGAGAACGGGAGUUCGACUCGCCCCCGGGAGAUUUUUUCCUCGAGCAA [U63A C68A]	≤ 0.026
CUCUCGGUAGCCAAGUUGGUUUAAGGCGCAAGACUUUAAUUUAUCACUACGAAAUCUUGAGAACGGGUGUUCGACUCGCCCCCGGGAGAUUUUUUCCUCGAGCAA [U63A C68U]	0.755
CUCUCGGUAGCCAAGUUGGUUUAAGGCGCAAGACUUUAAUUUAUCACUACGAAAUCUUGAGAACGGGCGUUUGACUCGCCCCCGGGAGAUUUUUUCCUCGAGCAA [U63A C72U]	0.133
CUCUCGGUAGCCAAGUUGGUUUAAGGCGCAAGACUUUAAUUUAUCACUACGAAAUCUUGAGAACGGGCGUUCGAGUCGCCCCCGGGAGAUUUUUUCCUCGAGCAA [U63A C75G]	1.13
CUCUCGGUAGCCAAGUUGGUUUAAGGCGCAAGACUUUAAUUUAUCACUACGAAAUCUUGAGAACGGGCGUUCGACUGGCCCCCGGGAGAUUUUUUCCUCGAGCAA [U63A C77G]	≤ 0.026
CUCUCGGUAGCCAAGUUGGUUUAAGGCGCAAGACUUUAAUUUAUCACUACGAAAUCUUGAGAACGGGCGUUCGACUCGACCCCGGGAGAUUUUUUCCUCGAGCAA [U63A C79A]	≤ 0.026
CUCUCGGUAGCCAAGUUGGUUUAAGGCGCAAGACUUUAAUUUAUCACUACGAAAUCUUGAGAACGGGCGUUCGACUCGGCCCCGGGAGAUUUUUUCCUCGAGCAA [U63A C79G]	≤ 0.026
CUCUCGGUAGCCAAGUUGGUUUAAGGCGCAAGACUUUAAUUUAUCACUACGAAAUCUUGAGAACGGGCGUUCGACUCGCCCGCGGGAGAUUUUUUCCUCGAGCAA [U63A C82G]	≤ 0.026
CUCUCGGUAGCCAAGUUGGUUUAAGGCGCAAGACUUUAAUUUAUCACUACGAAAUCUUGAGAACGGGCGUUCGACUCGCCCUCGGGAGAUUUUUUCCUCGAGCAA [U63A C82U]	0.178
CUCUCGGUAGCCAAGUUGGUUUAAGGCGCAAGACUUUAAUUUAUCACUACGAAAUCUUGAGAACGCGCGUUCGAGUCGUCCCCGGGAGAUUUUUUCCUCGAGCAA [U63A G66C C75G C79U]	≤ 0.026
CUCUCGGUAGCCAAGUUGGUUUAAGGCGCAAGACUUUAAUUUAUCACUACGAAAUCUUGAGAACGGACGUUCGACUCGCCCCCGGGAGAUUUUUUCCUCGAGCAA [U63A G67A]	≤ 0.026
CUCUCGGUAGCCAAGUUGGUUUAAGGCGCAAGACUUUAAUUUAUCACUACGAAAUCUUGAGAACGGGCCUUCGACUCGCGCCCGGGAGAUUUUUUCCUCGAGCAA [U63A G69C C80G]	≤ 0.026
CUCUCGGUAGCCAAGUUGGUUUAAGGCGCAAGACUUUAAUUUAUCACUACGAAAUCUUGAGAACGGGCUUUCGACUCGCCCCCGGGAGAUUUUUUCCUCGAGCAA [U63A G69U]	≤ 0.026
CUCUCGGUAGCCAAGUUGGUUUAAGGCGCAAGACUUUAAUUUAUCACUACGAAAUCUUGAGAACGGGCGUUCACCUCGCCCCCGGGUGAUUUUUUCCUCGAGCAA [U63A G73A A74C A87U]	≤ 0.026
CUCUCGGUAGCCAAGUUGGUUUAAGGCGCAAGACUUUAAUUUAUCACUACGAAAUCUUGAGAACGGGCGUUCGACUCACCCCCGGGAGAUUUUUUCCUCGAGCAA [U63A G78A]	0.06
CUCUCGGUAGCCAAGUUGGUUUAAGGCGCAAGACUUUAAUUUAUCACUACGAAAUCUUGAGAACGGGCGUUCGACUCCCCCCCGGGGGAUUUUUUCCUCGAGCAA [U63A G78C A87G]	≤ 0.026
CUCUCGGUAGCCAAGUUGGUUUAAGGCGCAAGACUUUAAUUUAUCACUACGAAAUCUUGAGAACGGGCGUUCGACUCGCCCCCCGGCGAUUUUUUCCUCGAGCAA [U63A G84C A87C]	≤ 0.026
CUCUCGGUAGCCAAGUUGGUUUAAGGCGCAAGACUUUAAUUUAUCACUACGAAAUCUUGAGAACGGGCGUUCGACUCGCCCCCGGGAAUUUUUUUCCUCGAGCAA [U63A G88A A89U]	≤ 0.026
CUCUCGGUAGCCAAGUUGGUUUAAGGCGCAAGACUUUAAUUUAUCACUACGAAAUCUUGAGAACGGGCGCUCGACUCGCCCGCGGGAGAUUUUUUCCUCGAGCAA [U63A U70C C82G]	≤ 0.026
CUCUCGGUAGCCAAGUUGGUUUAAGGCGCAAGACUUUAAUUUAUCACUACGAAAUCUUGAGAACGGGCGCUCGACUCGCCCCCGGGAUAUUUUUUCCUCGAGCAA [U63A U70C G88U]	≤ 0.026
CUCUCGGUAGCCAAGUUGGUUUAAGGCGCAAGACUUUAAUUUAUCACUACGAAAUCUUGAGAACGGGCGGUCGACUCGCCCCCGGGAGAUUUUUUCCUCGAGCAA [U63A U70G]	≤ 0.026
CUCUCGGUAGCCAAGUUGGUUUAAGGCGCAAGACUUUAAUUUAUCACUACGAAAUCUUGAGACCGGGCGUUCGGCUCGCCCCCGGGCGAUUUUUUCCUCGAGCAA [U63C A74G A87C]	≤ 0.026
CUCUCGGUAGCCAAGUUGGUUUAAGGCGCAAGACUUUAAUUUAUCACUACGAAAUCUUGAGACCGGGCGUUCGUCUCGCCCCCGGGAGAUUUUUUCCUCGAGCAA [U63C A74U]	≤ 0.026
CUCUCGGUAGCCAAGUUGGUUUAAGGCGCAAGACUUUAAUUUAUCACUACGAAAUCUUGAGACGGGGCGUUCGACUCGCCCCCGGGAGAUUUUUUCCUCGAGCAA [U63C C64G]	≤ 0.026
CUCUCGGUAGCCAAGUUGGUUUAAGGCGCAAGACUUUAAUUUAUCACUACGAAAUCUUGAGACCGGGAGUUCGACUCGCCCCCGGGAGGUUUUUUCCUCGAGCAA [U63C C68A A89G]	≤ 0.026
CUCUCGGUAGCCAAGUUGGUUUAAGGCGCAAGACUUUAAUUUAUCACUACGAAAUCUUGAGACCGGGUGUUCGACUCGCCCCCGGGAGAUUUUUUCCUCGAGCAA [U63C C68U]	0.228
CUCUCGGUAGCCAAGUUGGUUUAAGGCGCAAGACUUUAAUUUAUCACUACGAAAUCUUGAGACCGGGCGUUCGACUUGCCCCCGGGAGAUUUUUUCCUCGAGCAA [U63C C77U]	≤ 0.026

Variant	nonsense suppression
CUCUCGGUAGCCAAGUUGGUUUAAGGCGCAAGACUUUAAUUUAUCACUACGAAAUCUUGAGACCGGGCGUUCGACUCGCCCUCGGGAGAUUUUUUCCUCGAGCAA [U63C C82U]	0.449
CUCUCGGUAGCCAAGUUGGUUUAAGGCGCAAGACUUUAAUUUAUCACUACGAAAUCUUGAGACCGAGCGUUCGACUCGCCCCCGGGAGAUUUUUUCCUCGAGCAA [U63C G66A]	≤ 0.026
CUCUCGGUAGCCAAGUUGGUUUAAGGCGCAAGACUUUAAUUUAUCACUACGAAAUCUUGAGACCGAGCGUUCGACUCGCCCCCGGGCGAUUUUUUCCUCGAGCAA [U63C G66A A87C]	≤ 0.026
CUCUCGGUAGCCAAGUUGGUUUAAGGCGCAAGACUUUAAUUUAUCACUACGAAAUCUUGAGACCGGGCGUUCUACUCGCCCCCGGGAGGUUUUUUCCUCGAGCAA [U63C G73U A89G]	≤ 0.026
CUCUCGGUAGCCAAGUUGGUUUAAGGCGCAAGACUUUAAUUUAUCACUACGAAAUCUUGAGACCGGGCGUUCGACUCCCCCCCGGAAGAUUUUUUCCUCGAGCAA [U63C G78C G86A]	≤ 0.026
CUCUCGGUAGCCAAGUUGGUUUAAGGCGCAAGACUUUAAUUUAUCACUACGAAAUCUUGAGACCGGGCGUUCGACUCUCCCCCGGGAGAUUUUUUCCUCGAGCAA [U63C G78U]	0.0499
CUCUCGGUAGCCAAGUUGGUUUAAGGCGCAAGACUUUAAUUUAUCACUACGAAAUCUUGAGACCGGGCGUUCGACUCGCCCCCGAGAGAUUUUUUCCUCGAGCAA [U63C G85A]	1.06
CUCUCGGUAGCCAAGUUGGUUUAAGGCGCAAGACUUUAAUUUAUCACUACGAAAUCUUGAGACCGGGCGUUCGACUCGCCCCCGGUAGAUUUUUUCCUCGAGCAA [U63C G86U]	≤ 0.026
CUCUCGGUAGCCAAGUUGGUUUAAGGCGCAAGACUUUAAUUUAUCACUACGAAAUCUUGAGACCGGGCGUUCGACUCGCCCCCGGGACAUUUUUUCCUCGAGCAA [U63C G88C]	≤ 0.026
CUCUCGGUAGCCAAGUUGGUUUAAGGCGCAAGACUUUAAUUUAUCACUACGAAAUCUUGAGACCGGGCGUACUACUCGCCCCCGGGAGAUUUUUUCCUCGAGCAA [U63C U71A G73U]	≤ 0.026
CUCUCGGUAGCCAAGUUGGUUUAAGGCGCAAGACUUUAAUUUAUCACUACGAAAUCUUGAGACCGGGCGUUCGACACGCCCCCGGGAAAUUUUUUCCUCGAGCAA [U63C U76A G88A]	≤ 0.026
CUCUCGGUAGCCAAGUUGGUUUAAGGCGCAAGACUUUAAUUUAUCACUACGAAAUCUUGAGAGCGGGCGUUCGACUCGCCCCCGGGAGCUUUUUUCCUCGAGCAA [U63G A89C]	≤ 0.026
CUCUCGGUAGCCAAGUUGGUUUAAGGCGCAAGACUUUAAUUUAUCACUACGAAAUCUUGAGAGCGGGCGUUCGACUCGCCCCCGGGAGUUUUUUUCCUCGAGCAA [U63G A89U]	≤ 0.026
CUCUCGGUAGCCAAGUUGGUUUAAGGCGCAAGACUUUAAUUUAUCACUACGAAAUCUUGAGAGCGGGCGUUCGACUCGACCCCGGGAGAUUUUUUCCUCGAGCAA [U63G C79A]	≤ 0.026
CUCUCGGUAGCCAAGUUGGUUUAAGGCGCAAGACUUUAAUUUAUCACUACGAAAUCUUGAGAGCGGGCGUUCGACUCGCGCCCGGGAGAUUUUUUCCUCGAGCAA [U63G C80G]	≤ 0.026
CUCUCGGUAGCCAAGUUGGUUUAAGGCGCAAGACUUUAAUUUAUCACUACGAAAUCUUGAGAGCGGGCGUUCGACUCGCGCCUGGGAGAUUUUUUCCUCGAGCAA [U63G C80G C83U]	≤ 0.026
CUCUCGGUAGCCAAGUUGGUUUAAGGCGCAAGACUUUAAUUUAUCACUACGAAAUCUUGAGAGCGGGCGUUCGACUCGCUCCCGGGAGAUUUUUUCCUCGAGCAA [U63G C80U]	≤ 0.026
CUCUCGGUAGCCAAGUUGGUUUAAGGCGCAAGACUUUAAUUUAUCACUACGAAAUCUUGAGAGCGGGCGUUCGACUCGCCUCCGGGAGAUUUUUUCCUCGAGCAA [U63G C81U]	≤ 0.026
CUCUCGGUAGCCAAGUUGGUUUAAGGCGCAAGACUUUAAUUUAUCACUACGAAAUCUUGAGAGCGGGCGUUCGACUCGCCCUCGGGAGAUUUUUUCCUCGAGCAA [U63G C82U]	0.0882
CUCUCGGUAGCCAAGUUGGUUUAAGGCGCAAGACUUUAAUUUAUCACUACGAAAUCUUGAGAGCAUGCGUUCGACUCGCCCCCGGGAGAUUUUUUCCUCGAGCAA [U63G G65A G66U]	≤ 0.026
CUCUCGGUAGCCAAGUUGGUUUAAGGCGCAAGACUUUAAUUUAUCACUACGAAAUCUUGAGAGCUGGCGUUCGACUCGCCCCCGGGAGAUUUUUUCCUCGAGCAA [U63G G65U]	≤ 0.026
CUCUCGGUAGCCAAGUUGGUUUAAGGCGCAAGACUUUAAUUUAUCACUACGAAAUCUUGAGAGCUGGCGUUCGAUUCGCCCCCGGGAGAUUUUUUCCUCGAGCAA [U63G G65U C75U]	≤ 0.026
CUCUCGGUAGCCAAGUUGGUUUAAGGCGCAAGACUUUAAUUUAUCACUACGAAAUCUUGAGAGCGGGCAUUCGACUCGCCCCCGGGAGAUUUUUUCCUCGAGCAA [U63G G69A]	0.116
CUCUCGGUAGCCAAGUUGGUUUAAGGCGCAAGACUUUAAUUUAUCACUACGAAAUCUUGAGAGCGGGCGUUCUUCUCCCCCCCGGGAGAUUUUUUCCUCGAGCAA [U63G G73U A74U G78C]	≤ 0.026
CUCUCGGUAGCCAAGUUGGUUUAAGGCGCAAGACUUUAAUUUAUCACUACGAAAUCUUGAGAGCGGGCGUUCGACUCCCCCCCGGGAGAUUUUUUCCUCGAGCAA [U63G G78C]	≤ 0.026
CUCUCGGUAGCCAAGUUGGUUUAAGGCGCAAGACUUUAAUUUAUCACUACGAAAUCUUGAGAGCGGGCGUUCGACUCGCCCCCGGCAGAUUUUUUCCUCGAGCAA [U63G G86C]	≤ 0.026
CUCUCGGUAGCCAAGUUGGUUUAAGGCGCAAGACUUUAAUUUAUCACUACGAAAUCUUGAGAGCGGGCGAUCGACUCGCCCCCGGGAGAUUUUUUCCUCGAGCAA [U63G U70A]	≤ 0.026
